Measurements reported in PubChem BioAssay AID504332 (National Center for Advancing Translational Sciences (NCATS), 2011).
About 31,000 (8.9%) of roughly 350,000 compounds were called active. This list was built around the results that the source calls inconclusive (neither active nor inactive); the mix of calls is not that of the screen. Calls follow the shape of the dose curve; as a rule, active = well fitted inhibition curve with a large enough effect; inconclusive = small, poorly fitted or top-dose-only effect; inactive = no such curve, though single readings can be large or run the other way. Potencies of inconclusive entries are doubtful fits and often do not repeat.

What follows are compounds tested against Histone-lysine N-methyltransferase EHMT2 (Homo sapiens) (UniProt Q96KQ7) (assay: qHTS Assay for Inhibitors of Histone Lysine Methyltransferase G9a). Conditions: G9a H3K9 monomethylation, AlphaScreen, 2 h; activity, negative = inhibition: at 59 µM (top of the series) unless noted.
Outline: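 Readings reflect AlphaScreen signal from monomethyl-H3K9 antibody detection. HMT at 20 nM; substrate b-H3K9 500 nM; cofactor SAM 20 uM; 2 h RT reaction; compounds tested as titrations in qHTS with 15 min preincubation.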
% is scaled to controls: 0 for no effect and ±100 for the full control effect; potency is read from the fitted curve at half-maximal effect; tags tell the direction and shape of the fitted curve.
Also: nearly all actives have a fitted effect of over 75% in size.

UniProt Q96KQ7, sequence (Q96KQ7 whole entry, looked up): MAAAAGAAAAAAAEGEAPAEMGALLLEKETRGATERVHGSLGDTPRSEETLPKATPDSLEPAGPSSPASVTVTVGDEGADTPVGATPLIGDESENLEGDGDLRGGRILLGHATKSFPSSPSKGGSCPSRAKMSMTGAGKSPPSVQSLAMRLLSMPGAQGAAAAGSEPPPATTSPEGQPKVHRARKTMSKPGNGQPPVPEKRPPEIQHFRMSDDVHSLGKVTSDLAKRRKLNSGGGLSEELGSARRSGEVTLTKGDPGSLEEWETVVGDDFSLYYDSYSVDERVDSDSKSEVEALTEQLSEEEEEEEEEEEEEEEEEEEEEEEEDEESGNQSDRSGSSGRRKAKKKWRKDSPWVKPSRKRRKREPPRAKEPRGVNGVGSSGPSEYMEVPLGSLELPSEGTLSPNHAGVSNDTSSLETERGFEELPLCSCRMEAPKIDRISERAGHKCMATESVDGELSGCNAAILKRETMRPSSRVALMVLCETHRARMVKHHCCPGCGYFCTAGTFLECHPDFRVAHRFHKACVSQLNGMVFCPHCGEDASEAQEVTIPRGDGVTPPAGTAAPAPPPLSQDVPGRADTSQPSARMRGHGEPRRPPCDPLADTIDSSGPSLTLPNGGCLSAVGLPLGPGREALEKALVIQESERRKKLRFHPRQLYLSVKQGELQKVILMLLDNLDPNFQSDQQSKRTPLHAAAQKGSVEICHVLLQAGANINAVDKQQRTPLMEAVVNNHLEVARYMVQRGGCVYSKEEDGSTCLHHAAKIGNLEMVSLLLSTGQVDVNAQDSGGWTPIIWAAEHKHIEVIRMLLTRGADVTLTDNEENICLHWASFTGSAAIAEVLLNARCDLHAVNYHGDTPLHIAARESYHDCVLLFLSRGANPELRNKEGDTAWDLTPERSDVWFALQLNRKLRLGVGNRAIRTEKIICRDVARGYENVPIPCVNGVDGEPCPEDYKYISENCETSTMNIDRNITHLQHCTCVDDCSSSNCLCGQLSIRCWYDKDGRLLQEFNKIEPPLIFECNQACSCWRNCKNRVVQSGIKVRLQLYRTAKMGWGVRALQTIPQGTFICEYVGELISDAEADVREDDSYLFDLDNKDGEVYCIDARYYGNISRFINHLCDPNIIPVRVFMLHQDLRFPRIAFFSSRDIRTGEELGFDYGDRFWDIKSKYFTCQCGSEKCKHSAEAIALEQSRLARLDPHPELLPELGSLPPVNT

| Compound | Potency | activity, negative = inhibition |
| --- | --- | --- |
| Cc1cc2c(cc1S(=O)(=O)NCc1ccccc1)NC(=O)CO2 | inconclusive: 89.1 µM [inhibitor, single point] |  |
| Cc1ccc(C2=NS(=O)(=O)N(C)C(C(=O)Nc3ccc4c(c3)OCO4)=C2)cc1 | active: 79.4 µM |  |
| Cc1ccc(S(=O)(=O)N2CC(O)C2)cc1 |  | inactive: 14.1% [at 2.33 µM] |
| Cc1cc(C(=O)OCC(=O)Nc2cccc(S(=O)(=O)N(C)C)c2)c(C)o1 |  | inactive: -3.26% [at 102 µM] |
| COc1ccc(N(C(=O)Cc2cccs2)C2C=CS(=O)(=O)C2)cc1 (stereo not drawn) |  | inactive: 6.47% [at 102 µM] |
| O=C(Cn1c(=S)[nH]c2ccccc2c1=O)NCCc1ccccc1 | inconclusive: 89.1 µM [inhibitor, single point] |  |
| CC1Cc2ccccc2N1CC(=O)NC(=O)NCc1ccccc1 (stereo not drawn) | inconclusive: 50.1 µM [inhibitor, partial curve] |  |
| COCCCN1C(=O)C(=O)/C(=C(/O)c2ccc(OC)cc2)C1c1cccc(OC)c1 (stereo not drawn) | inconclusive: 56.2 µM [inhibitor, partial curve, poor fit] |  |
| Cc1c([N+](=O)[O-])c(C(=O)Sc2ccc(Br)cc2)nn1C | active: 25.1 µM |  |
| COc1ccc(C(=O)NC(=S)Nc2ccccc2N2CCOCC2)cc1Br |  | inactive: -6.87% |
| O=C(O)c1ccc(NS(=O)(=O)c2cccc3cccnc23)cc1 | inconclusive: 89.1 µM [inhibitor, single point] |  |
| CCN(CC)C(=O)C1CCCN(Cc2sccc2C)C1 (stereo not drawn) | active: 31.6 µM |  |
| CCC(=O)NNc1cc(=O)c2c(=O)n(C)c(=O)n(C)c2[nH]1 | inconclusive: 79.4 µM [inhibitor, single point] |  |
| CCN(CC)S(=O)(=O)c1ccc(C(=O)Nc2cc(C)cc(C)c2)cc1 |  | inactive: 8.47% [at 12.7 µM] |
| CCCN(C(=O)CSc1nnc(-c2ccoc2C)n1N)C1CCS(=O)(=O)C1 (stereo not drawn) | inconclusive: 4.47 µM [inhibitor, partial curve] |  |
| COc1ccc(-n2c(=O)c3c4c(sc3n3c(=S)[nH]nc23)CCCC4)cc1 | inconclusive: 0.447 µM [inhibitor, full curve, poor fit] |  |
| CC1=C(c2ccc(Cl)cc2)[N+](=O)C(C)(C)N1[O-] | active: 50.1 µM |  |
| COc1cc(C)ccc1OCCSc1nc2ccc(NC(=O)c3ccco3)cc2s1 | inconclusive: 20 µM [inhibitor, partial curve, poor fit] |  |
| Cc1cc(C)nc(N2CCC(C(=O)O)CC2)n1 | inconclusive: 89.1 µM [inhibitor, single point] |  |
| CC(=O)c1c(C)[nH]c(C(=O)CN2C(=O)NC(C)(C)C2=O)c1C |  | inactive: 3.15% [at 0.501 µM] |
| Cc1occc1-c1nnc(SCC(=O)c2ccc(F)cc2)o1 | inconclusive: 1.78 µM [inhibitor, partial curve, poor fit] |  |
| Cc1ccc(S(=O)(=O)Nc2cc(C)nn2-c2ccccc2)cc1 | inconclusive: 31.6 µM [inhibitor, single point] |  |
| CCN1CCN(C(c2cccs2)C(C)NS(=O)(=O)c2ccc(C)cc2)CC1 (stereo not drawn) | inconclusive: 79.4 µM [inhibitor, partial curve, poor fit] |  |
| CC(C)(C#CCN1CCCCC1)OCCOC(c1ccccc1)c1ccccc1 | inconclusive: 15.8 µM [inhibitor, partial curve, poor fit] |  |

| Compound | Potency | activity, negative = inhibition |
| --- | --- | --- |
| O=C(CCS(=O)(=O)c1ccc(Br)cc1)Nc1cc(F)ccc1F | active: 50.1 µM |  |
| CC(=O)NCCNc1ccnc(-c2ccccc2C(F)(F)F)n1 |  | inactive: 10.6% [at 0.501 µM] |
| Cc1cc(C(=O)Nc2sc3c(c2C#N)CCC3)no1 |  | inconclusive: -79.7% [inhibitor] |
| Cc1cc2c(cc1S(=O)(=O)NCc1ccc(F)cc1)n(C)c(=O)c(=O)n2C |  | inactive: -5.67% |
| CCCCN(C(=O)Cc1ccc(S(=O)(=O)N2CCOCC2)s1)c1c(N)n(CC(C)C)c(=O)[nH]c1=O | inconclusive: 89.1 µM [inhibitor, partial curve, poor fit] |  |
| Cn1cccc1Cc1nnc(SCC(=O)Nc2ccc3c(c2)OCCO3)n1-c1ccc(F)cc1 | active: 44.7 µM |  |
| Cc1ccc(-n2c(-c3cnccn3)n[nH]c2=S)cc1 | active: 7.94 µM |  |
| CCCCNC(=O)c1nn(C)c2c1CSc1ccccc1-2 | active: 15.8 µM |  |
| O=[N+]([O-])c1cccnc1N1CCCCC1 |  | inactive: 5.75% [at 102 µM] |
| CN(C)S(=O)(=O)c1cccc(-c2nnc(SCC(=O)NCCCCCC(=O)O)n2-c2ccc(F)cc2)c1 | active: 15.8 µM |  |
| CCN(CC)CCCNC(=S)N1CCC(c2nc3ccccc3[nH]2)CC1 | inconclusive: 56.2 µM [inhibitor, partial curve, poor fit] |  |
| Cc1ccc(N/N=C2\COC(C)(C)CC2=O)cc1 | active: 44.7 µM |  |
| c1ccc(Nc2cc(Nc3ccccc3)[nH]n2)cc1 | inconclusive: 25.1 µM [inhibitor, single point] |  |
| CCCC(=O)Nc1ccc(N2CCN(C(=O)CCC)CC2)cc1 | active: 50.1 µM |  |
| COC(=O)CC1C(=O)NC(C)=C1C(=O)OC (stereo not drawn) |  | inactive: -26.4% [at 102 µM] |
| O=C(CSc1nnnn1-c1ccc(C(=O)O)cc1)NC1CCCCC1 |  | inactive: 0.652% [at 102 µM] |
| C[C@H](N)c1nnc(SCc2c(Cl)cccc2Cl)o1 | inconclusive: 7.08 µM [inhibitor, single point] |  |
| COc1ccc(OC)c(C2C(C#N)=C(N)N(N(C)C)C3=C2C(=O)CCC3)c1 (stereo not drawn) |  | inactive: -38.5% [at 102 µM] |
| CNCC(O)CN1CCN(c2ccccc2OC)CC1 (stereo not drawn) | active: 50.1 µM |  |
| Cc1noc(C)c1C(=O)OCC(=O)c1c[nH]c2ccccc12 | inconclusive: 89.1 µM [inhibitor, partial curve, poor fit] |  |
| COc1ccc(C(=O)/C=C/c2ccc(C)cc2)c(OC(=O)c2ccc([N+](=O)[O-])cc2)c1 | inconclusive: 2.82 µM [inhibitor, full curve] |  |
| CCOC(=O)C(CC)Sc1ccc2nnc(-c3cccnc3)n2n1 (stereo not drawn) | inconclusive: 50.1 µM [inhibitor, partial curve, poor fit] |  |
| OCCNCCCCCOc1ccc(F)cc1 |  | inactive: 4.93% [at 102 µM] |
| CS(=O)(=O)c1cccc(C(=O)Nc2cccc(S(=O)(=O)N3CCCC3)c2)c1 | inconclusive: 39.8 µM [inhibitor, partial curve, poor fit] |  |
